In the supplement of paper PMC7125110:
± gives the standard error. This sample is rich in variants without activity.

B1: glmS ribozyme (parent)
chain: AUAAAAGCGCCAGAACUACAGAAAUGUAGUUGACGAGGAGGAGGUUUAUCGAAUUUUCGGCGGAUGCCUCCAAA

How the values were obtained:
Conditions in all cases: with glucosamine-6-phosphate
glucosamine-6-phosphate [1] = variants of: B1; test: self-cleavage kobs at 640 uM GlcN6P; higher = faster cleavage; RNA array
Method in brief: (§1)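 Using a hybridised Cy3 probe at 37 °C, barcoded ribozyme variants transcribed in situ by E. coli RNA polymerase on sequenced MiSeq chips were monitored across tiles imaged over ~14 h. The flow contained glucosamine-6-phosphate from 40 μM to 10 mM in HEPES/KCl/Mg(OAc)2 buffer. Signals were normalised to baseline and to non-cleaving reference variants before per-tile medians were fit to one- or two-exponential decays to yield kobs. Weighted Michaelis–Menten fits across concentrations gave kcat and KM.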

glucosamine-6-phosphate [2] = variants of: B1; test: self-cleavage kobs at 160 uM GlcN6P; higher = faster cleavage; RNA array
Method in brief: as §1

glucosamine-6-phosphate [3] = variants of: B1; test: self-cleavage kobs at 2500 uM GlcN6P; higher = faster cleavage; RNA array
Method in brief: as §1

glucosamine-6-phosphate [4] = variants of: B1; test: self-cleavage kobs at 10000 uM GlcN6P; higher = faster cleavage; RNA array
Method in brief: as §1

Variant	self-cleavage kobs at 640 uM GlcN6P (glucosamine-6-phosphate [1]) [s⁻¹]	self-cleavage kobs at 160 uM GlcN6P (glucosamine-6-phosphate [2]) [s⁻¹]	self-cleavage kobs at 2500 uM GlcN6P (glucosamine-6-phosphate [3]) [s⁻¹]	self-cleavage kobs at 10000 uM GlcN6P (glucosamine-6-phosphate [4]) [s⁻¹]
AUAAAAGCGCCCGAACUACAGAAAUGUAGUCGACGAGGAGCAGGUUUAUCGAAUUUUCGGCGGCUGCCUCCAAA [A12C U31C G41C A64C]	< 1e-05	< 1e-05	< 1e-05	–
AUAAAAGCGCCCGAACUACAGAAAUGUAGUUGACGAGGAGGAGGGUUAGCGAAUUUUCGGCGGAUCCCUCCAAA [A12C U45G U49G G66C]	< 1e-05	< 1e-05	–	–
AUAAAAGCGCUAGAACUACAGAAAUGUAGUUGACGAGGAGGAGGUUUAUCGAAUGUUCGGCGGAUGCCUACAAA [C11U U55G C70A]	8.31e-05 ± 3.3e-05	–	–	–
AUAAAAGCGCCGGAACUACAGAAAUGUAGUUGACGAGGAGGAAGUGUAUCGAAUAUUCGGGGGAUGCCUCCAAA [A12G G43A U46G U55A C61G]	< 1e-05	–	–	–
AUAAAAGCGCCGGAACUACAGAAAUGUAGUUGACGAGGAGUAGGUUUAUCCAAUUUUCGGCGGAUGCCUCAAAA [A12G G41U G51C C71A]	< 1e-05	< 1e-05	< 1e-05	–
AUAAAAGCGCCUGAACUACAGAAAUGUAGUUGACGAGGAGGAGGUUUCUCGAAUUUUAGGCGGAUGCCUCCAAA [A12U A48C C58A]	< 1e-05	–	< 1e-05	–
AUAAAAGCGCCCGAACUACAGAAAUGUACUUGACGAGGAGGUGGUUUAUCAAAUUUUGGGCGGAUGCUUCCAAA [A12C G29C A42U G51A C58G C68U]	< 1e-05	–	–	–
AUAAAAGCGCCCGAACUACAGAAAUGUAGUUGACAAGGAGGAGGUUUAUCGAAUUUUCGGCGGAUGCCUUCAAA [A12C G35A C70U]	< 1e-05	–	< 1e-05	–
AUAAAAGCGCCGGAACUACAGAAAUGUAAUUGACGAUGAGGAGGUUUAUCGAAUUAUCGGCGGAUGCCUCCAAA [A12G G29A G37U U56A]	< 1e-05	–	–	–
AUAAAAGCGCUAGAACUACAGAAAUGUAGUUGACGAGGAGGAGGUUUAUCGAAUUUUCGGCGGAAGCCUCUAAA [C11U U65A C71U]	2.73e-05 ± 1.3e-05	–	8.15e-05 ± 1.6e-05	0.000139 ± 4.3e-05
AUAAAAGCGCCUGAACUACAGAAAUGUAUUUGACGAGGAGGAGGUUUAUCGUAUUUUCGGCUGAUGCCUCCAAA [A12U G29U A52U G62U]	< 1e-05	–	< 1e-05	–
AUAAAAGCGCUAGAACUACAGAAAUGUAGUAGACCAGGAGGAGGUUUAUCGAAUUUUCGGCGGAUGCCUCCAAA [C11U U31A G35C]	< 1e-05	–	–	–
AUAAAAGCGCCGUAACUACAGAAAUGUAGUUGACGAGGAGUAGGUUUAUCGAAUUUGCGGCGGAUGCCUCCAAA [A12G G13U G41U U57G]	< 1e-05	–	–	–
AUAAAAGCGCCCGAACUACAGAAAUGUAGUUGACGAGGAGGAGGUUUAUCGAACUUUCGGCGGAUGCCUCUAAA [A12C U54C C71U]	0.00422 ± 0.0017	–	0.0234 ± 0.0081	–
AUAAAAGCGCCGGAACUACAGAAAUGUAGUUGACGAAGAGGAGGUUUAUAGAAUUUUCGGCGGAUGCCUCCAAA [A12G G37A C50A]	< 1e-05	–	–	< 1e-05
AUAAAAGCGCCGGAACUACAGAAAUGUAGUUGACUAAGAGGAGGUUUAUCGAAUUUUCGGCGGAUGCCUCCAAA [A12G G35U G37A]	< 1e-05	–	–	–
AUAAAAGCGCCUGAGCUACAGAAAUGUAGUUGACGAGGAGAAGGUUUAUCGAAUUUUCGGAGGAUGCCUCCAAA [A12U A15G G41A C61A]	< 1e-05	–	–	–
AUAAAAGCGCCCGAGGUACAGAAAUGUAGUUGACGAGGAGGAGGUUUAUCUAAUUUUCGGCGGAUGCCUCCAAA [A12C A15G C16G G51U]	< 1e-05	–	–	–
AUAAAAGCGCCCGAACUACAGAAAUGUAGUUGAGGAGGAGGAGGUUUAUCGAAUUUUCGGCGGAUCCCUCCAAA [A12C C34G G66C]	< 1e-05	–	–	–
AUAAAAGCGCCCGAACUACAGAAAUGUAGUUUACGAGGAGGAGGUUUAUCGAAUUUUCGGCGUAUGCCUCGAAA [A12C G32U G63U C71G]	< 1e-05	–	< 1e-05	–

Variant	self-cleavage kobs at 640 uM GlcN6P (glucosamine-6-phosphate [1]) [s⁻¹]	self-cleavage kobs at 160 uM GlcN6P (glucosamine-6-phosphate [2]) [s⁻¹]	self-cleavage kobs at 2500 uM GlcN6P (glucosamine-6-phosphate [3]) [s⁻¹]	self-cleavage kobs at 10000 uM GlcN6P (glucosamine-6-phosphate [4]) [s⁻¹]
AUAAAAGCGCCCGAACUACAGAAAUGUAGUUGACUAGGAGUAGGUUUAUCGAAUUUUCGGCGGAUGCCUCCAAA [A12C G35U G41U]	< 1e-05	< 1e-05	–	–
AUAAAAGCGCCAAAACUACAGAAAUGUAGUUCACGAGGAGGAGGUUUAUCGAAUUUUCGGCGGAUGCCUCCAAA [G13A G32C]	6.56e-05 ± 8.7e-06	–	0.000136 ± 1.8e-05	0.000388 ± 5.3e-05
AUAAAAGCGCCAAAACUACAGAAAUGUAGUUGAAGAGGAGGAGGUUUAUCGAAUUUUUGGCGGAUGCCUCCAAA [G13A C34A C58U]	< 1e-05	< 1e-05	–	–
AUAAAAGCGCCUGAACUACAGAAAUGUAGUUGACGAGGAGGAGGUUUGUCGAAUUUUCGGCGGAUGCCUCCAAA [A12U A48G]	9.16e-05 ± 1.3e-05	2.8e-05 ± 1.2e-05	0.000246 ± 3e-05	0.000156 ± 1.5e-05
AUAAAAGCGCCAAAUCUACAGAAAUGUAGUUGACGAGGAGGGGGUUUAUCGAAUUUUCGGCGGAUCCCUCCAAA [G13A A15U A42G G66C]	< 1e-05	–	< 1e-05	–
AUAAAAGCGCCAAAACUACAGAAAUGUAGUUGACGAGGUGGAGGUUUAUCGAAUCUUCGGCGGAUGCCUCCAAA [G13A A39U U55C]	4.33e-05 ± 1.4e-05	–	0.000128 ± 2.9e-05	–
AUAAAAGCGCCUGAGCUACAGAAAUGUAGUUGACGAGGAGAAGGUUUAUCGAAUUUUCGGCGGAUGCCUCCAAA [A12U A15G G41A]	0.00098 ± 0.00018	0.000272 ± 4.5e-05	–	–
AUAAAAGCGCUAGAACUACAGAAAUGUAGUCGACGAGGAGGAGGUUUAUCGAAUUUUCGGCGGAUGCCUCCAAA [C11U U31C]	0.000179 ± 2.3e-05	2.97e-05 ± 1.5e-05	0.000364 ± 5.9e-05	0.000465 ± 5.5e-05
AUAAAAGCGCCGGAACUACAGAAAUGUAGAUGACGAUGAGGAGGUUUAUCGAAUUUUCGGCGGCUGCCUCCAAA [A12G U30A G37U A64C]	< 1e-05	–	< 1e-05	–
AUAAAAGCGCCGGAACUACAGAAAUGUAGUCGACGAAGAGGAGGUUUAUCGAAUUUUCGGCGGAUGCCUACAAA [A12G U31C G37A C70A]	< 1e-05	–	–	–
AUAAAAGCGCCGGAACUACAGAAAUGUAGUUGACGAGUAGGAGGUUUAUCGAAUUUUCGGCGGACGCCUCCAAA [A12G G38U U65C]	< 1e-05	< 1e-05	–	–
AUAAAAGCGCCGGAACUACAGAAAUGUACUUGCCGAGGAGGAGGUUUAUCGAAUUUUCGGCGGAUGCCUCCAAA [A12G G29C A33C]	< 1e-05	–	< 1e-05	–
AUAAAAGCGCCAAAACUACAGAAAUGUAGUUGAAGAGGAGGAGGUUUAUCGAAUUUUCGGCGGAUGUCUGCAAA [G13A C34A C67U C70G]	< 1e-05	–	< 1e-05	–
AUAAAAGCGCCUGAACUACAGAAAUGUAGUUGACGAGGAGGAGGUUUAUCGAAUUUUCUGCGGAUGCCUCCAAA [A12U G59U]	< 1e-05	–	–	–
AUAAAAGCGCCUGAACUACAGAAAUGUAGUUGGCCAGGAGGAGCUUUAUCGAGUUUUCGGCGGAUGCCUCCAAA [A12U A33G G35C G44C A53G]	< 1e-05	–	–	–
AUAAAAGCGCCUGAACUACAGAAAUGUAGUUGACGACGAGUAGGUUUAUCGAAUUUUCGGCGGAUGCCUCCAAA [A12U G37C G41U]	< 1e-05	–	–	–
AUAAAAGCGCCUGAACUACAGAAAUGUAGUUGACGAGGAGGAGGUUUAUCGAAUUUUCGGCAGAUGCCUCCAAA [A12U G62A]	< 1e-05	< 1e-05	–	< 1e-05
AUAAAAGCGCCAAACCUACAGAAAUGUAGUUGACGAGGAGGAGGUUUAUCGAAUUUUCGGCGGAUGCCUCCAAA [G13A A15C]	5.24e-05 ± 1.1e-05	–	9.3e-05 ± 2.5e-05	0.000198 ± 2.6e-05
AUAAAAGCGCCAAAGCUACAGAAAUGUAGUUGACGAGGAGGAGGUUUAUCGAAUUUUCGGCGGAUGCCUCCAAA [G13A A15G]	0.000327 ± 5.6e-05	6.23e-05 ± 1.3e-05	0.000431 ± 7.3e-05	0.000784 ± 0.00011
